# The campaign covered roughly 410,000 compounds. About 530 (0.13%) were called active. The shares of active, inactive and inconclusive entries below differ from those in the screen. The call rests on the fitted dose curve; in most records, active means well fitted inhibition curve with a large enough effect; inconclusive means small, poorly fitted or top-dose-only effect, or another doubt; inactive means no such curve, though single readings can be large or run the other way. Potencies of inconclusive entries are doubtful fits and often do not repeat.
# Assay: qHTS of GLP-1 Receptor Inverse Agonists: Cytotox Screen
# Settings: HEK293 cAMP-luciferase reporter cells, luminescence, 24 h; activity change, negative = inhibition: at 38.3 µM (top of the series) unless noted
# How it was run: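 Seeding density was 200 cells/uL; after overnight-length (12 h) culture, 23 nL compounds went on for 24 h at 37 °C. Readout used a luciferase detection reagent, luminescence taken after 12 min at room temperature.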
# On the % scale 0 is the no-effect control and ±100 the full control effect; potency means the concentration at half of the fitted maximal effect.
Compound,Potency,"activity change, negative = inhibition"
COc1cc(OC)cc(C(=O)Nc2ccc3nc4n(c(=O)c3c2)CCCCC4)c1,inactive,
CC(C)c1ccc(NC(=S)N2CCCC2)cc1,"inconclusive: 20 µM [inhibitor, single point]",
CCCCCCCCCCCCN1C/C(=C\C(=O)OCC)c2ccccc2S1(=O)=O,"inconclusive: 28.2 µM [inhibitor, single point]",
CCCc1cc(-c2n[nH]c(C(=O)OCC)c2-c2cscn2)c(O)cc1O,"inconclusive: 28.2 µM [inhibitor, single point]",
COc1ccc(C(CCNCc2ccccc2)c2ccc(F)cc2)cc1 (stereo unspecified),,inactive: -14.1%
CCOC(=O)c1ccc(N2C(=O)C(CC(=O)NC)N(CCc3ccc(OC)c(OC)c3)C2=S)cc1 (stereo unspecified),"inconclusive: 31.6 µM [inhibitor, single point]",
NC(CSC12CC3CC(CC(C3)C1)C2)C(=O)O (stereo unspecified),"inconclusive: 28.2 µM [inhibitor, single point]",
CCOC(=O)c1c(C)[nH]c(C2=NNC(=Nc3ccccc3)SC2)c1C,"inconclusive: 10 µM [inhibitor, single point]",
Cc1ccc(N(C(=O)Cc2c[nH]c3ccccc23)C(C(=O)NC2CCCCC2)c2ccco2)cc1 (stereo unspecified),"inconclusive: 31.6 µM [inhibitor, single point]",
Cc1ccc(C)c(N2CCN(CCCNC(=O)c3cnn(-c4ccccc4)c3C3CCN(C(=O)OC(C)(C)C)CC3)CC2)c1,"inconclusive: 15.8 µM [inhibitor, single point]",
C[C@H](CO)N1C[C@H](C)[C@H](CN(C)Cc2ccc(-c3ccccc3)cc2)Oc2ccc(NS(=O)(=O)c3ccccc3)cc2CC1=O,"inconclusive: 12.6 µM [inhibitor, single point]",
CC1CCN(c2ccc(-c3ccc(NC(=O)C(F)(F)F)cc3)nn2)CC1,,inactive: -6.66%
COc1ccccc1Nc1c2c(nc3ccc(NC(=O)c4ccccc4F)cc13)CCCC2,"inconclusive: 3.55 µM [inhibitor, single point]",
C/C(=N\NC(=S)NCc1ccccc1)c1ccc2c(c1)OCCO2,"inconclusive: 11.2 µM [inhibitor, partial curve, poor fit]",
N#C/C(=C\c1cc2c(cc1Br)OCO2)C(=O)NCC1CCCO1 (stereo unspecified),"inconclusive: 2 µM [inhibitor, partial curve, poor fit]",
C=CCn1c(SCCCC)nc(O)cc1=O,"inconclusive: 28.2 µM [inhibitor, single point]",
O=C(Nc1scc(-c2cccs2)c1C(=O)O)c1cccs1,"inconclusive: 10 µM [inhibitor, single point]",
C=CCn1c(CCSCc2ccccc2)n[nH]c1=S,,inactive: -11.2%
COc1ccc(C2c3ccc4ccccc4c3Oc3ncn(CCCO)c(=N)c32)cc1 (stereo unspecified),"inconclusive: 12.6 µM [inhibitor, single point]",
CCn1c(C)nc2cc(C(=O)N3N=C(CCOC)CC3(O)C(F)(F)F)ccc21 (stereo unspecified),"inconclusive: 15.8 µM [inhibitor, partial curve, poor fit]",
O=C1C(Cl)=C(N2CCOCC2)C(=O)N1c1ccccc1F,,inactive: 2.26%
O=C(Nc1ccc2c(c1)OCCO2)c1ccc(Br)s1,"inconclusive: 20 µM [inhibitor, single point]",

Compound,Potency,"activity change, negative = inhibition"
COc1c(Cl)cc(Cl)cc1/C=C/C(=O)c1ccc(NC(=O)c2cccs2)cc1,"inconclusive: 7.08 µM [inhibitor, partial curve, poor fit]",
c1ccc(CSc2nncn2-c2ccccn2)cc1,"inconclusive: 0.501 µM [inhibitor, full curve, poor fit]",
Cc1ccc(Cl)cc1N1CCN(C(=O)c2ccc(CS(=O)c3ccccc3)o2)CC1 (stereo unspecified),"inconclusive: 11.2 µM [inhibitor, partial curve]",
COc1ccc(/C=N/NC(=O)c2cccc3ccccc23)c(OC)c1OC,"inconclusive: 5.01 µM [inhibitor, full curve, poor fit]",
COCCn1c(C)cc(C(=O)CN2C(=O)NC3(CCCCCCC3)C2=O)c1C,"inconclusive: 5.62 µM [inhibitor, full curve, poor fit]",
O=C(/C=C/c1ccco1)Nc1nc(-c2ccccn2)cs1,"inconclusive: 8.91 µM [inhibitor, partial curve, poor fit]",
Cc1ccccc1Nc1nc(N)nc(COC(=O)c2c(C)noc2C)n1,"inconclusive: 28.2 µM [inhibitor, single point]",
Cc1cc(N2CCOCC2)ccc1/C=C1/SC(=O)NC1=O,"inconclusive: 12.6 µM [inhibitor, single point]",
Cc1ccc(C)c(NC(=O)c2ccc(OCc3c(C)noc3C)cc2)c1,,inactive: 1.59%
CCCOc1cccc(C2c3c(-c4ccccc4O)n[nH]c3C(=O)N2Cc2ccco2)c1 (stereo unspecified),"inconclusive: 11.2 µM [inhibitor, single point]",
Cc1cc(C)c(S(=O)(=O)NCc2nc3nc(C)cc(C)n3n2)c(C)c1,"inconclusive: 0.794 µM [inhibitor, full curve, poor fit]",
O=C(/C=C/c1ccccc1)c1ccccn1,,inactive: -2.66%
O=C(CSc1nc(-c2ccco2)cc(C(F)(F)F)n1)Nc1ccccc1C(F)(F)F,"inconclusive: 5.01 µM [inhibitor, partial curve, poor fit]",
C=C1C(=O)[C@]23C[C@H]1CCC2[C@@]1(C)C(C[C@@H]3O)[C@](C)(C(=O)OC)CC[C@@H]1OC(C)=O (stereo partly specified),"inconclusive: 7.08 µM [inhibitor, partial curve, poor fit]",
CC(=O)Oc1ccc(OC(C)=O)c(SCCCCCN2CCOCC2)c1,"inconclusive: 31.6 µM [inhibitor, single point]",
CCOc1cc(CNCCCN2CCOCC2)cc(Br)c1OCc1ccccc1Cl,"inconclusive: 28.2 µM [inhibitor, single point]",
Cc1ccc(-n2nnnc2SCC(=O)c2cc(C)n(CC3CCCO3)c2C)cc1 (stereo unspecified),"inconclusive: 11.2 µM [inhibitor, partial curve, poor fit]",
CSc1nnc(CNS(=O)(=O)c2ccc(Br)cc2)n1C,"inconclusive: 28.2 µM [inhibitor, single point]",
COc1cc(/C(C)=N\NC(N)=S)cc(OC)c1OC,"inconclusive: 15.8 µM [inhibitor, single point]",
O=S(=O)(c1ccc(Cl)s1)N1CCN(Cc2ccccc2)CC1,,inactive: 0.0016%
Cc1ccc(Cl)cc1N1CCN(C(=O)c2cc(S(=O)(=O)N3CCCC3)c[nH]2)CC1,,inactive: -26%
CC(C)CNC(=S)NNC(=O)c1ccc2c(c1)OCO2,,inactive: -0.705%

Compound,Potency,"activity change, negative = inhibition"
CNC(=S)N/N=C/c1c(C)nn(-c2ccccc2)c1Cl,"inconclusive: 12.6 µM [inhibitor, partial curve]",
O=C(Oc1cccc(Nc2ncnc3ccccc23)c1)c1ccccc1Cl,"inconclusive: 11.2 µM [inhibitor, single point]",
COc1ccc(C2CC(c3c(-c4ccccc4)c4cc(Cl)ccc4[nH]c3=O)=NN2S(C)(=O)=O)cc1 (stereo unspecified),"inconclusive: 11.2 µM [inhibitor, partial curve, poor fit]",
COc1cnc(-c2ccccn2)nc1Oc1c(C)cccc1C,"inconclusive: 5.01 µM [inhibitor, partial curve, poor fit]",
O=C(Oc1cccc2ccccc12)c1ccncc1,,inactive: -2.88%
CC(C)OC(=O)c1cc2c(ccn2C)n1CC(=O)N(Cc1ccccc1)c1ccc(F)cc1,"inconclusive: 28.2 µM [inhibitor, single point]",
COc1ccc(NC(=O)NS(=O)(=O)c2ccc(C)cc2)cn1,,inactive: 15.1%
Cc1ccccc1-n1c(-c2ccc3ccccc3n2)n[nH]c1=S,"inconclusive: 10 µM [inhibitor, partial curve]",
O=C(NNC1=C(C(=O)C(F)(F)F)CCC1)c1ccncc1,"inconclusive: 28.2 µM [inhibitor, single point]",
CC(=O)NC(c1ccc(C(C)C)cc1)c1ccc2cccnc2c1O (stereo unspecified),,inactive: -0.85%
Cc1cccc(NNC(=S)Nc2ccccc2)c1,"inconclusive: 2.51 µM [inhibitor, full curve, poor fit]",
CS(=O)(=O)c1nc([N+](=O)[O-])nn1CCCc1ccccc1,"inconclusive: 2 µM [inhibitor, full curve, poor fit]",
COC(=O)Cc1ccc(N(Cc2ccccc2F)S(=O)(=O)c2ccc(Cl)cc2)cc1,,inactive: 34.4%
COc1cc(/C=C/C(=O)OCC(=O)NC(=O)NC2CCCCC2)ccc1OC(F)F,"inconclusive: 22.4 µM [inhibitor, single point]",
O=C1NC(=Nc2ccc(O)cc2)S/C1=C\C=C\c1ccco1,"inconclusive: 5.01 µM [inhibitor, partial curve]",
CCOC(=O)c1noc2ncnc(N3CCN(c4cccc(C(F)(F)F)c4)CC3)c12,,inactive: 3.7%
CCN1C(=O)C(O)(CC(=O)/C=C/C=C/c2ccccc2)c2ccccc21 (stereo unspecified),"inconclusive: 17.8 µM [inhibitor, single point]",
N#C/C(=C/c1cn(-c2ccccc2)nc1-c1cccc(OCc2ccccc2)c1)C(=O)NCCCn1ccnc1,"inconclusive: 28.2 µM [inhibitor, single point]",
CC(=O)NCCn1c(SCC(=O)NC2CCCCC2)nc2ccccc2c1=O,,inactive: -1.52%
CCOC(=O)Nc1ccc(S(=O)(=O)Nc2onc(C)c2C)cc1,"inconclusive: 10 µM [inhibitor, single point]",
O=C(O)CCn1c2c(c3ccccc31)CCCC2,,inactive: 2.17%
COc1ccccc1/C=C/C=N/NC(=O)c1cc(-c2ccc(C)o2)[nH]n1,"inconclusive: 12.6 µM [inhibitor, partial curve]",

# — PubChem BioAssay AID624418 (National Center for Advancing Translational Sciences (NCATS), 2012)
